From publication PMC7368075 come the findings set out here.

Protein sequences, listed by entry. Tags and fused reporters are not part of them. Lines headed by an entry give the natural chain unless they say otherwise; changes in a name come on top. Residues count along the entry.
UniProt Q9H792: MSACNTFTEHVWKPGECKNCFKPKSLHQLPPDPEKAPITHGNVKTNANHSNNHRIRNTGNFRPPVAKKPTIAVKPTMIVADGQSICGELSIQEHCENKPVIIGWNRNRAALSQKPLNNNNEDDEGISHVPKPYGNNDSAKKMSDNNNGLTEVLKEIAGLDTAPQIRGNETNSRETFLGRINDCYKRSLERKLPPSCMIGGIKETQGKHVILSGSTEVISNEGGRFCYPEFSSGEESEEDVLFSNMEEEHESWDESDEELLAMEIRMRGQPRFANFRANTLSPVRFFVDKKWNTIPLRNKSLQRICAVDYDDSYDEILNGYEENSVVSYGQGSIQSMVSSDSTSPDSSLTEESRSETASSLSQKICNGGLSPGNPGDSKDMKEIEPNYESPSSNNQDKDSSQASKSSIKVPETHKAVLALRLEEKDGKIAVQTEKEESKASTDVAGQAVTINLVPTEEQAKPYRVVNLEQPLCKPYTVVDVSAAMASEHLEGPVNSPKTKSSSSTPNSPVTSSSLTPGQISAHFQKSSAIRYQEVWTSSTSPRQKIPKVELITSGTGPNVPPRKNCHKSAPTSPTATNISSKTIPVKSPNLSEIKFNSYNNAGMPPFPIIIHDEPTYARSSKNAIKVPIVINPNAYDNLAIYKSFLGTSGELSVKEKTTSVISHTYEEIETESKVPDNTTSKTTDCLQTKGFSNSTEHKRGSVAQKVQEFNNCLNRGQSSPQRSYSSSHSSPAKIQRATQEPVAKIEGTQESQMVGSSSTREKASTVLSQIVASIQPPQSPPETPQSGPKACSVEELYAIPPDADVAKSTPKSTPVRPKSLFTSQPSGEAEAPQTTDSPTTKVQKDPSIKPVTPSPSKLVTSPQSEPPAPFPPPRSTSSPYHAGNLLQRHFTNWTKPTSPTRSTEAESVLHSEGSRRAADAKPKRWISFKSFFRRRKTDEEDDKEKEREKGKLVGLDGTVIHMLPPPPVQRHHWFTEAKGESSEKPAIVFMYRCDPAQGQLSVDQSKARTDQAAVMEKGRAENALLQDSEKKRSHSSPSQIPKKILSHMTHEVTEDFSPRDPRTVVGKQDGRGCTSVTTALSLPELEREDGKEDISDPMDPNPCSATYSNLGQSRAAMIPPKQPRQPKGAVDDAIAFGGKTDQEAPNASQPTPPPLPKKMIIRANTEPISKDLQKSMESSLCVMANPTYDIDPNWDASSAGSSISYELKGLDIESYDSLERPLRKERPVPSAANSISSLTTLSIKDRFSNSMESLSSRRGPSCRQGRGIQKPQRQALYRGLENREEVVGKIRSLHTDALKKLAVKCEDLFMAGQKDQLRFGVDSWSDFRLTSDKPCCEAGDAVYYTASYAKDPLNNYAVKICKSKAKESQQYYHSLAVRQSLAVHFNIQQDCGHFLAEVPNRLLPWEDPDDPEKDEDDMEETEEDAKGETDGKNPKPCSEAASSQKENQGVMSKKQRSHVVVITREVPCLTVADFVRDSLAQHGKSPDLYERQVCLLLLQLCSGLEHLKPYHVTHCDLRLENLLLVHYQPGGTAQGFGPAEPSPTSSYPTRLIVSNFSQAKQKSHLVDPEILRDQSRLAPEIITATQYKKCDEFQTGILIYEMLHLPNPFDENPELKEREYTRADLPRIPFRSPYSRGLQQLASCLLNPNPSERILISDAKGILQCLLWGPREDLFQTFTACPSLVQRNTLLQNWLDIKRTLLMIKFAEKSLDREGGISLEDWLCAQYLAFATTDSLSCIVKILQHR
UniProt P46108: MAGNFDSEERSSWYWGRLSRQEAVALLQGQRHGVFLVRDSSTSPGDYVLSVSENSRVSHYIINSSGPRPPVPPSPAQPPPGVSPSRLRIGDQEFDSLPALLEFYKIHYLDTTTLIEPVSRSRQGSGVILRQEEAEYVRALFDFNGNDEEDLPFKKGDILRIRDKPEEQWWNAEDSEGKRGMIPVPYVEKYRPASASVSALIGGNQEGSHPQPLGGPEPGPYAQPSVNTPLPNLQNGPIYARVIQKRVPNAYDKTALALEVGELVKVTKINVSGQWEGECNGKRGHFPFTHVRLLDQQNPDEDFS
UniProt P30530, residues 26-894: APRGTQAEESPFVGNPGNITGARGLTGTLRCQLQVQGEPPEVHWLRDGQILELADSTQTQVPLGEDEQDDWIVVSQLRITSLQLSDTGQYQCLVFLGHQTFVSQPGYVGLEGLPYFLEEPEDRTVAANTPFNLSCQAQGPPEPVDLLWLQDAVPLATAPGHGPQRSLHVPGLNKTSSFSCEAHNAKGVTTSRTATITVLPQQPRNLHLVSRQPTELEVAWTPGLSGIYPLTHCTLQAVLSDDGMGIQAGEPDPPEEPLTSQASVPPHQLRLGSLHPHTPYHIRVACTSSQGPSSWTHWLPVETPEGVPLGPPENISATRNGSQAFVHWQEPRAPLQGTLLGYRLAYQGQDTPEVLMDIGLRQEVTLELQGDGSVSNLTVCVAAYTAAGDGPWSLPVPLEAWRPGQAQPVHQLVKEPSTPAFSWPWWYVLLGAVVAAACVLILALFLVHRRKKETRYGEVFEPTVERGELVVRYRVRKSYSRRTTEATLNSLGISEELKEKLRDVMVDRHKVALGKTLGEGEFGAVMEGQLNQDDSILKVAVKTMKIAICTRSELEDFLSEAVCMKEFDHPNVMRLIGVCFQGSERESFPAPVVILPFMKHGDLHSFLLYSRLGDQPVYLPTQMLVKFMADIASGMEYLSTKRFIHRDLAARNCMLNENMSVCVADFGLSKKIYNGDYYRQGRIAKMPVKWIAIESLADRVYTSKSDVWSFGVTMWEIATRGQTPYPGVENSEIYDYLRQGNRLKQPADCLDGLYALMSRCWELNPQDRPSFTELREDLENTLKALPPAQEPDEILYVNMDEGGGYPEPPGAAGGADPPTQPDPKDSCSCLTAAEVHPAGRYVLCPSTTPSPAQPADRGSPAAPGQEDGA
UniProt P41240: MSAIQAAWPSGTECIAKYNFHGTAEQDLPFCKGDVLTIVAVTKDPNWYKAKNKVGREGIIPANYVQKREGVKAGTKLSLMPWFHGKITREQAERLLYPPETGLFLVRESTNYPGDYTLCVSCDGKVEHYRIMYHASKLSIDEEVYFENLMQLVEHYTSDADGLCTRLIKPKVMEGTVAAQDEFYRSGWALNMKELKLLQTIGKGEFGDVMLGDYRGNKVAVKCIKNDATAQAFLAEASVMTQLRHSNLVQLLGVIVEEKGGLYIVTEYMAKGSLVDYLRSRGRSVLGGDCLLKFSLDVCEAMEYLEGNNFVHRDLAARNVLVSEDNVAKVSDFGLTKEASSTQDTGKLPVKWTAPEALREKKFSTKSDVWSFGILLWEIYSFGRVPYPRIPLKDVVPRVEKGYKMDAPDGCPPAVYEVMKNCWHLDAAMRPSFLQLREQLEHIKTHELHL
UniProt Q14155: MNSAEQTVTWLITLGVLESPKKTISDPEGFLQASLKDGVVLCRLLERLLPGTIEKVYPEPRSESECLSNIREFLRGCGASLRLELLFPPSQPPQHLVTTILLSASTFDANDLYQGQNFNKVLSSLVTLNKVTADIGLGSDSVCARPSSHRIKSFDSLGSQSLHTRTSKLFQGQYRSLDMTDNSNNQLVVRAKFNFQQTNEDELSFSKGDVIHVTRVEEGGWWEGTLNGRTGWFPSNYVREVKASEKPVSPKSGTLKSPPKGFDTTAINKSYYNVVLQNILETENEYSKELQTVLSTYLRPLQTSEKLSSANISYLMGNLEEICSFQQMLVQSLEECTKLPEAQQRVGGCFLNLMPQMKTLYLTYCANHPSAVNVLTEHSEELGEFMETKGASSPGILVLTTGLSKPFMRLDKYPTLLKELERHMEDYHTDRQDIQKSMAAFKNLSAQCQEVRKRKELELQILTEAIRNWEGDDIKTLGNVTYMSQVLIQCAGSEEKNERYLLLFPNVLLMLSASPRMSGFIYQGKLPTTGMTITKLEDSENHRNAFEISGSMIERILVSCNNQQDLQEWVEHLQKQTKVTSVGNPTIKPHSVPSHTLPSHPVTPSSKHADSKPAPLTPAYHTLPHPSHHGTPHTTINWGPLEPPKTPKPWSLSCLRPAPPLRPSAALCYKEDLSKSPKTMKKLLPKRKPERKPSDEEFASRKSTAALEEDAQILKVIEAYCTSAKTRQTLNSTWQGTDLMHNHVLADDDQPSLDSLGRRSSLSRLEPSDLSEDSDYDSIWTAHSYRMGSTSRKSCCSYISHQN
UniProt P49023: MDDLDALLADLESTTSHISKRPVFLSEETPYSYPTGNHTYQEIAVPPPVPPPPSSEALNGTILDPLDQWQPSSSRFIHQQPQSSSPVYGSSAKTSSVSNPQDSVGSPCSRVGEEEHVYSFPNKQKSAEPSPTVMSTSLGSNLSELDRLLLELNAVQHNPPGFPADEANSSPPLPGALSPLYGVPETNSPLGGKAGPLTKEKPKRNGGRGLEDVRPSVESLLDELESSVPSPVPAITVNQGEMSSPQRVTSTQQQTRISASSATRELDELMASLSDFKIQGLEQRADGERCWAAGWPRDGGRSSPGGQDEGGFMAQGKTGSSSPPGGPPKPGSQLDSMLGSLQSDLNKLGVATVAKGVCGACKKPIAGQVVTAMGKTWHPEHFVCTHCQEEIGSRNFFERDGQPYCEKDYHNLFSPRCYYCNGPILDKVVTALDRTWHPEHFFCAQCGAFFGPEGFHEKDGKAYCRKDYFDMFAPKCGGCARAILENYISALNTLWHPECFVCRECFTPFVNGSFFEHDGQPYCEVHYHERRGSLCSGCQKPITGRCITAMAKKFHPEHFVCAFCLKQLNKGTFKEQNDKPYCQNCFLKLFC

Test [1] deals with T1, NEDD9 (co-IP with PEAK1, construct not told) (UniProt Q14511).
T1 sequence: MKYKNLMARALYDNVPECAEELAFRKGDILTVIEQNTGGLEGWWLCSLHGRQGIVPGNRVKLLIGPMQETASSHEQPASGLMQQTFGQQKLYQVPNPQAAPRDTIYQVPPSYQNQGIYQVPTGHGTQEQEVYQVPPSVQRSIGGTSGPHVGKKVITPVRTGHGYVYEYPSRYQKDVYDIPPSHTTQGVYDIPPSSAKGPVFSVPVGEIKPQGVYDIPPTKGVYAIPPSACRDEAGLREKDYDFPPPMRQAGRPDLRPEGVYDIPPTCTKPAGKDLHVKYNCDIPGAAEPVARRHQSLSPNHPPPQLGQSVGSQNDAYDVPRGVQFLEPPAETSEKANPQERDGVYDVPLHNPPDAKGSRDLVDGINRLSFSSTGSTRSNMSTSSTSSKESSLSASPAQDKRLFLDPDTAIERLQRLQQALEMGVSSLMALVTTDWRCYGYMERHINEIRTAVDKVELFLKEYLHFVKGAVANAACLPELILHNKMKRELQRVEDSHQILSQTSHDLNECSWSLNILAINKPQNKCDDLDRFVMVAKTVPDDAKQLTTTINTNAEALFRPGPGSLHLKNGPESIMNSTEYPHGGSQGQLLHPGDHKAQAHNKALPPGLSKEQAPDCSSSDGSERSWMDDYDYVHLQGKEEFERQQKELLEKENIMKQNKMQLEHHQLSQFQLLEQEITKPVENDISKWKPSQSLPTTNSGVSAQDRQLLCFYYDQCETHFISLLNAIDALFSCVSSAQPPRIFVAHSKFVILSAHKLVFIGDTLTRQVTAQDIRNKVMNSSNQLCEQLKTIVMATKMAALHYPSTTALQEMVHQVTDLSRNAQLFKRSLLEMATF
Kind of test: co-IP; only mentioned, no figure; cells and constructs not told.

For test [2], the target named is T2, NEDD9 (human (endogenous in MDA-MB-231)) (UniProt Q14511).
T2 sequence: T1 sequence
As to the kind of experiment: co-IP; endogenous proteins; lysates of MDA-MB-231 cells (control or 100 nM siAXL); anti-NEDD9 immunoprecipitation, CRKII by western blot; 1 mg lysate, 3 h, 4 °C.

Test [3] addresses Myc-PEAK1 (human) (UniProt Q9H792). As to the kind of experiment: co-IP; co-IP of Supplementary Fig. 6f and 7l, m; cells, plasmids and precipitating antibody not told in the text shown.
The target in test [4] is Myc-CRKII (UniProt P46108). Kind of test: co-IP; lysates of 293T cells expressing the indicated plasmids (with or without AXL WT or kinase dead in Fig. 6g); anti-Myc immunoprecipitation, western blot. A general note: A western blot detects proteins with antibodies after separation by electrophoresis.
Test [5] has as its target AXL (human (endogenous in MDA-MB-231 and Hs578T)) (UniProt P30530). As to the kind of experiment: proximity ligation; DuoLink in situ PLA on fixed, permeabilised MDA-MB-231 cells; endogenous proteins.
For test [6], the target named is CSK (human (endogenous in MDA-MB-231)) (UniProt P41240). As to the kind of experiment: co-IP; endogenous proteins; lysates of MDA-MB-231 cells treated or not with 1 µM R428; anti-CSK immunoprecipitation, PEAK1 by western blot.
For test [7], the target named is CRKII as GST fusion (GST pulldown) (UniProt P46108). Kind of test: pull-down; GST beads incubated with 1 mg of protein lysate for 2 h at 4 °C, western blot (Supplementary Fig. 5c); only the target purified.
In test [8] the target is GFP-CRKII (UniProt P46108). Kind of test: co-IP; lysates of 293T cells expressing the indicated plasmids (Fig. 6b; Fig. 6d with AXL WT); anti-GFP immunoprecipitation, Myc-PEAK1 by western blot.
The target in test [9] is GFP-CRKII (UniProt P46108). Kind of test: condition: only AXL kinase dead co-expressed instead of AXL WT; co-IP; lysates of 293T cells expressing the indicated plasmids with AXL kinase dead instead of AXL WT; anti-GFP immunoprecipitation, Myc-PEAK1 by western blot (Fig. 6d).

Results are given in words; binding and its absence hold for the method and conditions named. In cells and extracts the contact can be indirect. Some entries that bind do so weakly or less than the wild type.

On to “PEAK1 (co-IP with NEDD9, construct not told) (from UniProt Q9H792 1-1746)”, for which the binding result in test [1] is given as “no binding”.
As to CRKII (from UniProt P46108-1 1-304), the binding entry in test [2] is reported as “binds”.
For the substance βPIX (from UniProt Q14155 1-803), the binding entry in test [3] is listed as “binds”.
With GFP-PXN (from UniProt P49023 1-591), the binding result in test [4] was “binds”.
Consider PEAK1 (from UniProt Q9H792 1-1746), for which the binding result in test [5] and in test [6] was “binds” throughout.
With Myc-PEAK1 (from UniProt Q9H792 1-1746), the binding entry in test [7] is listed as “binds”; in test [8], “binds”; in [9], “no binding”.
